The results in this text go back to US9457043B2, “Combination therapy using c-Met inhibitor and c-Myc inhibitor” (Samsung Electronics Co., Ltd., priority 2013, dated 2016).

What all share (details): rank among the four antibodies huAbF46-H4-A1, -A2, -A3, -A5
For test [1], the target named is T1, c-Met (Homo sapiens, UniProt P08581). Briefly: Affinity for c-Met of affinity-matured antibodies. The test is classed as binding.
A further test has as its system Akt phosphorylation. Briefly: Akt phosphorylation by anti-c-Met antibodies.
Test [2] addresses T1, c-Met. Briefly: c-Met degradation degree by anti-c-Met antibodies.

T1 sequence (P08581 25-1390): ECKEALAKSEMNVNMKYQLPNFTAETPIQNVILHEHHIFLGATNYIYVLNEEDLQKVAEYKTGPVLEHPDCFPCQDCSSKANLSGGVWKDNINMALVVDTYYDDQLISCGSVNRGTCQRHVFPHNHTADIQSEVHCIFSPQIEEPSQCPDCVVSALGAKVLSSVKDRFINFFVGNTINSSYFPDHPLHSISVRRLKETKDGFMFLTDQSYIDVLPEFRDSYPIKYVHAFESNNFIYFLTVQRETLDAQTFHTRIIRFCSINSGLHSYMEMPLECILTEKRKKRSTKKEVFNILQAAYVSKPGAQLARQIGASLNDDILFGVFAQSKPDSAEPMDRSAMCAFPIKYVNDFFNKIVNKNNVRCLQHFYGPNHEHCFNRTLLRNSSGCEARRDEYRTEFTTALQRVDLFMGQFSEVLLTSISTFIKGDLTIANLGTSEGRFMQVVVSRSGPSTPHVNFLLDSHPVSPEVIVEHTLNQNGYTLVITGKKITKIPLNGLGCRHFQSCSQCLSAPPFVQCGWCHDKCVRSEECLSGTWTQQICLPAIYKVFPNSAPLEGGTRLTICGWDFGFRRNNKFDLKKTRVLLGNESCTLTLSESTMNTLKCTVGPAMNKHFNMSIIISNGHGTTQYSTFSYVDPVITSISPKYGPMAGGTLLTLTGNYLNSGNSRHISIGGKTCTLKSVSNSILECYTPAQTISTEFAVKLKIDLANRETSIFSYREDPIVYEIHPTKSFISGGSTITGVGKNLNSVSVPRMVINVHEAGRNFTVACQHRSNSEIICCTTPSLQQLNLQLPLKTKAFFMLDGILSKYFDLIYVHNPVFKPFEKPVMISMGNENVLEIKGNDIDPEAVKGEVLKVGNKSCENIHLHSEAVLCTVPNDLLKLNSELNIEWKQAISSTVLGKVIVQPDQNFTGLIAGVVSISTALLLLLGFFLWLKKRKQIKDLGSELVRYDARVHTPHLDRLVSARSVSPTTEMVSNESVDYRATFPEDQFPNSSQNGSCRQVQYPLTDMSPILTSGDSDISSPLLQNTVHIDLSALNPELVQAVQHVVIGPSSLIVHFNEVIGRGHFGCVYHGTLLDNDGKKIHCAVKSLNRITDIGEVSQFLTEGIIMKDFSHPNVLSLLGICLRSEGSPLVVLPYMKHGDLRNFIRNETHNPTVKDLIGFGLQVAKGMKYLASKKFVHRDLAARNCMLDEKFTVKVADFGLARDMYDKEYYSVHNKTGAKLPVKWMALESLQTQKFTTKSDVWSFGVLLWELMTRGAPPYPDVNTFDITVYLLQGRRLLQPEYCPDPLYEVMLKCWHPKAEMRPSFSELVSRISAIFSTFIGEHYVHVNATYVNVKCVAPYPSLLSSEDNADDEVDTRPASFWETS

B1: huAbF46-H4-A1: affinity-matured humanized anti-c-Met antibody of L3-1 origin (CDR-L3 SEQ ID NO: 13), U6-HC7 hinge (antibody)
heavy: EVQLVESGGGLVQPGGSLRLSCAASGFTFTDYYMSWVRQAPGKGLEWLGFIRNKANGYTTEYSASVKGRFTISRDNSKNTLYLQMNSLRAEDTAVYYCARDNWFAYWGQGTLVTVSSASTKGPSVFPLAPSSKSTSGGTAALGCLVKDYFPEPVTVSWNSGALTSGVHTFPAVLQSSGLYSLSSVVTVPSSSLGTQTYICNVNHKPSNTKVDKKVEPKSCDCH[human IgG1 Fc cut from this listing]
light: DIQMTQSPSSLSASVGDRVTITCKSSQSLLASGNQNNYLAWHQQKPGKAPKMLIIWASTRVSGVPSRFSGSGSGTDFTLTISSLQPEDFATYYCQQSYSRPYTFGQGTKVEIKRTVAAPSVFIFPPSDEQLKSGTASVVCLLNNFYPREAKVQWKVDNALQSGNSQESVTEQDSKDSTYSLSSTLTLSKADYEKHKVYACEVTHQGLSSPVTKSFNRGEC
Consider B1, for which the “affinity for c-Met” value with c-Met [1] is “highest”. Moreover, the Akt phosphorylation entry in the test on Akt phosphorylation was “lowest”. Further, in the test with c-Met [2], the c-Met degradation degree entry is “lowest”.
